Data: PubChem BioAssay AID1478 (National Center for Advancing Translational Sciences (NCATS), 2009)
Where “and” joins values, the source holds several entries; their conditions need not be identical. Equal values may be shown once. Screen size: about 200,000 compounds; about 860 (0.43%) were called active. Calls follow the shape of the dose curve; as a rule, active = well fitted inhibition curve with a large enough effect; inconclusive = small, poorly fitted or top-dose-only effect; inactive = flat fitted curve, though single readings scatter. The list shows a part of the results, in another mix than the full data. A structure can be active in one record and inactive in another.

Molecular target: Cruzipain (Trypanosoma cruzi) (UniProt P25779)
Chain of UniProt P25779 (P25779 whole entry, looked up): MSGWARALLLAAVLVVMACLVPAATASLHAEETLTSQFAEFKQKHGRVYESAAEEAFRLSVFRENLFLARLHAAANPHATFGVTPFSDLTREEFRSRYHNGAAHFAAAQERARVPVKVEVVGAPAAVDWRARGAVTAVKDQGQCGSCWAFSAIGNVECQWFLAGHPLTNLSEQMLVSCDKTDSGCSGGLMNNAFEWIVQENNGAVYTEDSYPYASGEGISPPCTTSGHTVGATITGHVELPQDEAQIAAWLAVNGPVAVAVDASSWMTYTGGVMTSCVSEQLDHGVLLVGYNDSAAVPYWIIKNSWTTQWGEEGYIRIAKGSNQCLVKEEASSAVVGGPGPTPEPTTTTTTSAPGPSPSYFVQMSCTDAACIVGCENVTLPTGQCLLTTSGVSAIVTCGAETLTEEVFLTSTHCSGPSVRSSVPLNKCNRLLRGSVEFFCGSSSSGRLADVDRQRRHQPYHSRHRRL
Experiment: qHTS Assay for Promiscuous and Specific Inhibitors of Cruzain (with detergent); also: nearly all actives have a fitted effect of over 40% in size
Details: purified cruzain, Z-FR-AMC fluorescence, 0.01% Triton
Procedure: Cruzain (3.4.22.51) is a cysteine protease from the tropical parasite Trypanosoma cruzi. Dual qHTS experiment was performed against the NCGC compound collection in order to 1) identify novel inhibitors of the enzyme and 2) profile the compound collection for promiscuous inhibitors operating via colloidal aggregation (by performing detergent-free and detergent-containing comparison screens). Cruzain was assayed by the use of fluorogenic coumarin-based substrate Z-FR-AMC: proteolytic cleavage releases AMC, whose fluorescence is measured at 360 nm excitation and 450 nm emission. Purified cruzain was supplied by the labs of Prof. James McKerrow and Brian Shoichet, UC San Francisco.
This assay had 0.01% Triton X-100 concentration. See also releated assay "qHTS Assay for Promiscuous and Specific Inhibitors of Cruzain (without detergent)" with 0.00005% Triton X-100.
See following references for additional details:
Assay Provider: Shoichet, Brian; University of California, San Fancisco
Screening Center PI: Austin, C.P.
Screening Center: NIH Chemical Genomics Center [NCGC]
Buffer: 100 mM Sodium Acetate, pH 5.5, 5 mM DTT, Triton X-100 concentration: 0.01%.
Buffer in columns 3 and 4 as negative control (no enzyme).
Substrate solution: 2 uM final concentration of Z-FR-AMC (catalog number I-1160, Bachem) dispensed throughout the plate.
Enzyme: 1.5 nM Cruzain final concentration in columns 1, 2, 5-48. Column 1 is neutral (100% activity). Column 2 contained titration of covalent inhibitor K11777, starting concentration 1 mM, then 1:2 dilution in duplicate).
Three uL of enzyme or buffer were dispensed to 1536-well Greiner black solid bottom plates. Compounds and controls (23 nL) were transferred via Kalypsys PinTool. The plates were incubated for 15 min at room temperature, and then 1 uL of substrate solution was added to start the reaction. The plates were immediately transferred to and read 4 times every 30 seconds for 2 min on ViewLux High-throughput CCD imager (Perkin-Elmer) using 360 nm excitation and 450 nm emission fluorescence protocol. The fluorescence intensity difference between the third and the first time points (time lapse of 60 seconds) was used to compute reaction progress.
Potency is read from the fitted curve at half-maximal effect.

SMILES | max response, negative = inhibition | Potency
CCCCCC#CCC#CCC#CCC#CCCCC(=O)O | inactive: -4.2% | 
CCOc1ccc(-c2nnc(SCC(=O)NCc3ccc(Cl)cc3)o2)cc1 |  | active: 25.1 µM
CCNc1ncc2nc(-c3ccccc3)c(=O)n(C)c2n1 | inactive: -0.657% | 
COc1cc(C2Oc3cc(C4Oc5cc(O)cc(O)c5C(=O)C4O)ccc3OC2CO)ccc1O (centres undefined) | inactive: -11% | 
COc1cccc2c1C(=O)c1c(O)c3c(c(O)c1C2=O)C[C@@](O)(C(=O)CO)C[C@@H]3O[C@H]1C[C@H](N)[C@H](O)[C@H](C)O1 | inactive: -23% | 
CCOC(=O)c1sc2nc(C(C)C)c3c(c2c1N)CCC3 | inactive: 32.5% | 
Cc1ccc(C(=O)NCCc2nc3ccccc3[nH]2)cc1[N+](=O)[O-] |  | active: 4.47 µM
O=c1cc(-c2ccccc2F)nc(-c2ccccc2F)o1 |  | active: 4.47 µM
O=C(CN1C(=O)/C(=C\c2cccc(F)c2)Oc2ccccc21)N1CCN(c2ccccn2)CC1 | inactive: 43.9% | 
CC1(C)CC(=O)c2c(oc3cc(O)c(O)cc23)C1 | inactive: 1.06% | 
CCCCCCCCCCCCCCC[C@H](O)[C@H](N)CO | inactive: -2.88% | 
Oc1c(Cl)cc(Cl)c(Cl)c1Cc1c(O)c(Cl)cc(Cl)c1Cl | inactive: -22.8% | 
COCCNC(=S)NCCCNc1nc2cc3c(cc2cc1C#N)OCO3 |  | active: 17.8 µM
CCc1ccc(NC(=O)c2cc3sc(Cl)cc3n2C)cc1 | inactive: 31.9% | 
CSc1nnc(-c2ccco2)c(-c2ccco2)n1 |  | active: 14.1 µM
CC1=NCCc2c1[nH]c1cc(O)ccc21 | inactive: -2.11% and inactive: -12.5% | 
CCc1nc2cccnc2n1-c1ccc(CC(=O)Nc2ccccc2Cl)cc1 |  | active: 12.6 µM
COC(=O)[C@H](NC(=O)c1cc(-c2ccccc2)nc2ccccc12)c1ccccc1 | inactive: -6.25% | 
N[C@@H](Cc1cc(I)c(Oc2ccc(O)c(I)c2)c(I)c1)C(=O)O | inactive: -2.42% | 
CC1CCCC(=O)CCC/C=C/c2cc(O)cc(O)c2C(=O)O1 (centres undefined) | inactive: -2.36% | 
NC(=NCCCCCCN=C(N)/N=C(\N)Nc1ccc(Cl)cc1)/N=C(\N)Nc1ccc(Cl)cc1 | inactive: -27% | 

SMILES | max response, negative = inhibition | Potency
CC1=C(C(=O)OCc2ccccc2)C(c2ccc3ccccc3c2)NC(=O)N1CCCCCC(=O)O (centres undefined) | inactive: -23.7% | 
C[C@H]1CCCC(=O)CCC/C=C/c2cc(O)cc(O)c2C(=O)O1 | inactive: -12.6% and inactive: -24.3% | 
CCn1c(C(=O)Nc2ccsc2C(=O)OC)cc2sc(Cl)cc21 | inactive: 41.9% | 
O=C(CN1C(=O)/C(=C\c2ccc(F)cc2)Oc2ccccc21)N1CCN(c2ccccn2)CC1 | inactive: 63.4% | 
CCn1c(C(=O)Nc2cc(C)cc(C)c2)cc2sc(Cl)cc21 | inactive: 8.3% | 
CCCn1c(=N)c(C(=O)NC2CCCC2)cc2c(=O)n3cccc(C)c3nc21 | inactive: -12.4% | 
COc1ccc([C@@H]2CNC(=O)C2)cc1OC1CCCC1 | inactive: 1.85% [middle of 4 runs] | 
CCOC(=O)CNc1nc(C#N)nc(N2CCOCC2)n1 |  | active: 2.24 µM
O=C(COC(=O)CNC(=O)C1CCCCC1)Nc1ccc(Cl)cn1 |  | active: 6.31 µM
CCCCCCCCCCCCCCC[C@@H](O)[C@@H](N)CO | inactive: -20.6% and inactive: 2.38% | 
O=C1CSC(c2cn(-c3ccccc3)nc2-c2cc3ccccc3oc2=O)N1Cc1ccccc1 (centres undefined) |  | active: 28.2 µM
COc1cccc2c1C(=O)c1c(O)c3c(c(O)c1C2=O)C[C@@](O)(C(=O)CO)C[C@@H]3O[C@@H]1C[C@H](N)[C@H](O)[C@H](C)O1 | inactive: -16.8% | 
Cc1c2ccncc2c(C)c2c1[nH]c1ccccc12 | inactive: -23.4% and inactive: -10.8% | 
CN(C)S(=O)(=O)c1ccc2[nH]cc(/C=C/c3nc4ccccc4c(=O)n3-c3ccccc3)c2c1 | inactive: 33.2% | 
COCCCn1c(=N)c(C(=O)NC2CCCCC2)cc2c(=O)n3ccccc3nc21 | inactive: -8.7% | 
CN(C(=O)COC(=O)CNC(=O)c1sc2ccccc2c1Cl)c1ccccc1 |  | active: 8.91 µM
Nc1cccc(N)c1 |  | active: 11.2 µM
COc1cccc2c1C(=O)c1c(O)c3c(c(O)c1C2=O)C[C@@](O)(C(=O)CO)C[C@@H]3OC1C[C@@H](N)[C@H](O)[C@H](C)O1 (some centres undefined) | inactive: -6.14% | 
CCCCn1c2ccc(F)cc2c2nnc(SCCN(CC)CC)nc21 |  | active: 15.8 µM
CCOC(=O)C1(C)C=C(Nc2ccc(C(=O)O)cc2)C(=O)N1c1ccc(C(=O)O)cc1 (centres undefined) | inactive: 180% | 
COc1ccc2oc(-c3ccc(C)c(NC(=O)CSc4ccc(Cl)cc4)c3)nc2c1 | inactive: 2.06% | 

SMILES | max response, negative = inhibition | Potency
COc1ccc(C2CNC(=O)C2)cc1OC1CCCC1 (centres undefined) | inactive: 3.95% and inactive: -0.173% | 
N#CCCCl | inactive: 3.64% | 
Cc1nccc2c1[nH]c1ccccc12 | inactive: -15.7% [middle of 4 runs] | 
Cn1c(=O)c(C(=O)COC(=O)c2cc(-c3ccco3)nc3ccccc23)c(N)n(CC2CC2)c1=O | inactive: -12.6% | 
NC(=O)c1ccc(-c2ncc(-c3ccccc3)o2)cc1 | inactive: 40.8% | 
O=c1c(O)c(-c2cc(O)c(O)c(O)c2)oc2cc(O)cc(O)c12 | inactive: -19.2% and inactive: -19.3% | 
O=c1ccc2cc(O[C@H]3OC(CO)C(O)C(O)C3O)c(O)cc2o1 (some centres undefined) | inactive: 2.04% | 
CN(C)c1cc(-c2cccc(NS(C)(=O)=O)c2)ncn1 |  | active: 12.6 µM
O=C(OCC(=O)c1ccc([N+](=O)[O-])cc1)/C(=C\c1ccc(Cl)cc1)NC(=O)c1ccccc1 | inactive: -4.5% | 
CCCn1nc(C(=O)Oc2ccc3c(C)cc(=O)oc3c2)c2ccccc2c1=O | inactive: 39.3% | 
CCOCC(=O)Nc1c(C(=O)Nc2ccccc2OC)oc2ccccc12 | inactive: 31.1% | 
O=C(NCCc1nc2ccccc2[nH]1)c1ccc(Cl)c([N+](=O)[O-])c1 |  | active: 1.26 µM
COC(=O)CN(C#N)c1nc(SC)nc(N(C)C)n1 |  | active: 15.8 µM
COc1ccc(/C=C2\OC(=O)c3c(OC)cccc32)cc1OC | inactive: 33% | 
CCCCn1nc(C(=O)Oc2ccc3c(C)cc(=O)oc3c2)c2ccccc2c1=O | inactive: 37.2% | 
CCCn1c(=O)c2[nH]c(-c3ccc(S(=O)(=O)O)cc3)nc2n(CCC)c1=O | inactive: 37.5% | 
CCN(CC)C(=O)N[C@@H]1C[C@H]2c3cccc4[nH]cc(c34)C[C@@H]2N(C)C1 | inactive: -1.01% and inactive: 4.59% | 
COCCCNC(=O)C1CCN(S(=O)(=O)c2c(C)noc2/C=C\c2ccc(OC)cc2)CC1 | inactive: 49.8% | 
COc1ccc(N(CC(O)Cn2c3ccccc3c3ccccc32)S(=O)(=O)c2ccccc2)cc1 (centres undefined) | inactive: 33% | 
COc1ccc(S(=O)(=O)N(Cc2cc3ccc(OC)cc3[nH]c2=O)CC2COCCO2)cc1 (centres undefined) | inactive: 178% | 
O=C(Nc1ccc(S(=O)(=O)Nc2ncccn2)cc1)c1ccc(Br)s1 | inactive: 46.7% | 

SMILES | max response, negative = inhibition | Potency
CCCCn1c2ccc(F)cc2c2nnc(SCCN3CCCCC3)nc21 |  | active: 15.8 µM
CC(=O)c1cccc(NC(=O)CCCN2C(=O)COc3ccc(C)cc32)c1 |  | active: 17.8 µM
Cc1ccc(NC(=O)Cc2ccc(-n3c(C)nc4cccnc43)cc2)c(Cl)c1 |  | active: 8.91 µM
COc1cc(/C=N/NC(=O)C(Cc2c[nH]c3ccccc23)NC(=O)OCC(C)C)cc([N+](=O)[O-])c1O (centres undefined) | inactive: -19.4% | 
Cc1cc(N)c2ccccc2[n+]1CCCCCCCCCC[n+]1c(C)cc(N)c2ccccc21 | inactive: -23.1% and inactive: -22.9% and inactive: -25.8% | 
Nc1ccc(O)c2c(=O)cc(-c3ccccc3Cl)oc12 | inactive: -1.83% | 
COc1ccc(OCC2c3cc(OC)c(OC)cc3CCN2C(=O)c2c(F)cccc2F)cc1 (centres undefined) | inactive: 30.8% | 
CC(=O)N1CCN(C(=O)COc2ccc(Br)cc2)CC1 | inactive: 30.8% | 
CC(C)(Sc1ccc(CCN(CCCCC2CCCCC2)C(=O)NC2CCCCC2)cc1)C(=O)O | inactive: -18% | 
CCc1c(C)c2cc(Cl)c(O)c(CN3CCCCC3)c2oc1=O |  | active: 31.6 µM
O=C(NCCc1ccccc1)c1ccc2nc(-c3ccco3)c(-c3ccco3)nc2c1 |  | active: 15.8 µM
O=S(=O)(c1ccccc1)N(CC(O)Cn1c2ccccc2c2ccccc21)c1ccccc1 (centres undefined) | inactive: 34.2% | 
CSc1ccc(-c2c(C#N)c(N)nc3c2CCCC3)cc1 | inactive: 41.5% | 
CCN(CC)Cc1c(O)ccc2c(C)c(CC(=O)OC)c(=O)oc12 |  | active: 25.1 µM
O=C(Nc1cccc(C(F)(F)F)c1)c1ccc2nc(-c3ccco3)c(-c3ccco3)nc2c1 |  | active: 14.1 µM
CN(C)CCNC(=O)c1cc2c(=O)n(C)c3ccccc3c2n1C |  | active: 25.1 µM
COc1ccc(-c2cc(C#N)nc(N3CCN(C)CC3)n2)cc1 |  | active: 25.1 µM
c1ccc(Cn2c(-c3cccs3)nc3nc4ccccc4nc32)cc1 | inactive: 51.8% | 
O=C(Nc1ccc([N+](=O)[O-])cc1Cl)c1cc(Cl)ccc1O | inactive: -0.0468% and inactive: 2.12% | 
COc1cccc2c1C(=O)c1c(O)c3c(c(O)c1C2=O)C[C@@](O)(C(=O)CO)C[C@H]3O[C@H]1C[C@@H](N)[C@H](O)[C@@H](C)O1.[W] | inactive: 3.41% | 
Cc1cc(-n2c(=O)c(C#N)cc3c(=O)n4cccc(C)c4nc32)no1 | inactive: 105% | 
